Measurements reported in publication PMC6693284.
These are yes or no findings as the source states them, for the method shown. Binding seen in cells or lysates may run through a third protein. Some binding calls cover weakened binding; strength is not graded here. Each block holds one substance with its values, some of them ahead of it.

Amino acid sequences for entries named in this document (tags omitted). A change or cut given only in a name is not applied to a line headed by its entry. Chains listed by the source or under a name are the forms on record and can include a tag or linker. Residues count along the entry.
ERα-36 (endogenous) (human (endogenous in MDA-MB-231, MCF-7, MCF-10A)) (P03372-4, form named): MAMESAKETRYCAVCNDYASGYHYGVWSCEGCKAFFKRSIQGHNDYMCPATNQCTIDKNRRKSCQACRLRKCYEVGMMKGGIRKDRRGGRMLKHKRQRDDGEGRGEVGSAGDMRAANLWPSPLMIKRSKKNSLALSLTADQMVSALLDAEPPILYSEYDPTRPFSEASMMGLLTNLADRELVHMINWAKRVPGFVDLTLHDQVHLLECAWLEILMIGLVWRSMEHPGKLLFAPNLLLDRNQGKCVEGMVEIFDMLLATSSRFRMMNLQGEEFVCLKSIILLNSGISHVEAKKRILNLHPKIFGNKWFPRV
UniProt P40763: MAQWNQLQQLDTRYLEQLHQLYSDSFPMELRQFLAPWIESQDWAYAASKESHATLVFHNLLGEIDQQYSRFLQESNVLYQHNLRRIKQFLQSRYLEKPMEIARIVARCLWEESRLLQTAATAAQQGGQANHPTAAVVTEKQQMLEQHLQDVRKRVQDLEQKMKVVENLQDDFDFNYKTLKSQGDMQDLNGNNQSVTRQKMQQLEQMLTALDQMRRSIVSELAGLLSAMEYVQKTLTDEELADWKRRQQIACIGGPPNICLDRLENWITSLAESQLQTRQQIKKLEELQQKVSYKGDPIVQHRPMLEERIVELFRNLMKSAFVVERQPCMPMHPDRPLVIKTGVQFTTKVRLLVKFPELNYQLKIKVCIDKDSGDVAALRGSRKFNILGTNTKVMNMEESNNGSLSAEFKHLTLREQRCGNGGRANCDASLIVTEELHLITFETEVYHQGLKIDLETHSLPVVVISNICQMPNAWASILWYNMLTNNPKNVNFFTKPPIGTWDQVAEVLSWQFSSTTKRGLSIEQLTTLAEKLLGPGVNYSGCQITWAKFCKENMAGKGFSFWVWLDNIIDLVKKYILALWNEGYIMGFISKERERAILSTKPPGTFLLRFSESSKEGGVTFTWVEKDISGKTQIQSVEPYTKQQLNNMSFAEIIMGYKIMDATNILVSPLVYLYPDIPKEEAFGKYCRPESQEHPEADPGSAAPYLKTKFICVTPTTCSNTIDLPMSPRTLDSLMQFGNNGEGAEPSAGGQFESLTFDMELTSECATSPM
Flag-tagged STAT3: residues 1-769 of P40763
UniProt Q09472: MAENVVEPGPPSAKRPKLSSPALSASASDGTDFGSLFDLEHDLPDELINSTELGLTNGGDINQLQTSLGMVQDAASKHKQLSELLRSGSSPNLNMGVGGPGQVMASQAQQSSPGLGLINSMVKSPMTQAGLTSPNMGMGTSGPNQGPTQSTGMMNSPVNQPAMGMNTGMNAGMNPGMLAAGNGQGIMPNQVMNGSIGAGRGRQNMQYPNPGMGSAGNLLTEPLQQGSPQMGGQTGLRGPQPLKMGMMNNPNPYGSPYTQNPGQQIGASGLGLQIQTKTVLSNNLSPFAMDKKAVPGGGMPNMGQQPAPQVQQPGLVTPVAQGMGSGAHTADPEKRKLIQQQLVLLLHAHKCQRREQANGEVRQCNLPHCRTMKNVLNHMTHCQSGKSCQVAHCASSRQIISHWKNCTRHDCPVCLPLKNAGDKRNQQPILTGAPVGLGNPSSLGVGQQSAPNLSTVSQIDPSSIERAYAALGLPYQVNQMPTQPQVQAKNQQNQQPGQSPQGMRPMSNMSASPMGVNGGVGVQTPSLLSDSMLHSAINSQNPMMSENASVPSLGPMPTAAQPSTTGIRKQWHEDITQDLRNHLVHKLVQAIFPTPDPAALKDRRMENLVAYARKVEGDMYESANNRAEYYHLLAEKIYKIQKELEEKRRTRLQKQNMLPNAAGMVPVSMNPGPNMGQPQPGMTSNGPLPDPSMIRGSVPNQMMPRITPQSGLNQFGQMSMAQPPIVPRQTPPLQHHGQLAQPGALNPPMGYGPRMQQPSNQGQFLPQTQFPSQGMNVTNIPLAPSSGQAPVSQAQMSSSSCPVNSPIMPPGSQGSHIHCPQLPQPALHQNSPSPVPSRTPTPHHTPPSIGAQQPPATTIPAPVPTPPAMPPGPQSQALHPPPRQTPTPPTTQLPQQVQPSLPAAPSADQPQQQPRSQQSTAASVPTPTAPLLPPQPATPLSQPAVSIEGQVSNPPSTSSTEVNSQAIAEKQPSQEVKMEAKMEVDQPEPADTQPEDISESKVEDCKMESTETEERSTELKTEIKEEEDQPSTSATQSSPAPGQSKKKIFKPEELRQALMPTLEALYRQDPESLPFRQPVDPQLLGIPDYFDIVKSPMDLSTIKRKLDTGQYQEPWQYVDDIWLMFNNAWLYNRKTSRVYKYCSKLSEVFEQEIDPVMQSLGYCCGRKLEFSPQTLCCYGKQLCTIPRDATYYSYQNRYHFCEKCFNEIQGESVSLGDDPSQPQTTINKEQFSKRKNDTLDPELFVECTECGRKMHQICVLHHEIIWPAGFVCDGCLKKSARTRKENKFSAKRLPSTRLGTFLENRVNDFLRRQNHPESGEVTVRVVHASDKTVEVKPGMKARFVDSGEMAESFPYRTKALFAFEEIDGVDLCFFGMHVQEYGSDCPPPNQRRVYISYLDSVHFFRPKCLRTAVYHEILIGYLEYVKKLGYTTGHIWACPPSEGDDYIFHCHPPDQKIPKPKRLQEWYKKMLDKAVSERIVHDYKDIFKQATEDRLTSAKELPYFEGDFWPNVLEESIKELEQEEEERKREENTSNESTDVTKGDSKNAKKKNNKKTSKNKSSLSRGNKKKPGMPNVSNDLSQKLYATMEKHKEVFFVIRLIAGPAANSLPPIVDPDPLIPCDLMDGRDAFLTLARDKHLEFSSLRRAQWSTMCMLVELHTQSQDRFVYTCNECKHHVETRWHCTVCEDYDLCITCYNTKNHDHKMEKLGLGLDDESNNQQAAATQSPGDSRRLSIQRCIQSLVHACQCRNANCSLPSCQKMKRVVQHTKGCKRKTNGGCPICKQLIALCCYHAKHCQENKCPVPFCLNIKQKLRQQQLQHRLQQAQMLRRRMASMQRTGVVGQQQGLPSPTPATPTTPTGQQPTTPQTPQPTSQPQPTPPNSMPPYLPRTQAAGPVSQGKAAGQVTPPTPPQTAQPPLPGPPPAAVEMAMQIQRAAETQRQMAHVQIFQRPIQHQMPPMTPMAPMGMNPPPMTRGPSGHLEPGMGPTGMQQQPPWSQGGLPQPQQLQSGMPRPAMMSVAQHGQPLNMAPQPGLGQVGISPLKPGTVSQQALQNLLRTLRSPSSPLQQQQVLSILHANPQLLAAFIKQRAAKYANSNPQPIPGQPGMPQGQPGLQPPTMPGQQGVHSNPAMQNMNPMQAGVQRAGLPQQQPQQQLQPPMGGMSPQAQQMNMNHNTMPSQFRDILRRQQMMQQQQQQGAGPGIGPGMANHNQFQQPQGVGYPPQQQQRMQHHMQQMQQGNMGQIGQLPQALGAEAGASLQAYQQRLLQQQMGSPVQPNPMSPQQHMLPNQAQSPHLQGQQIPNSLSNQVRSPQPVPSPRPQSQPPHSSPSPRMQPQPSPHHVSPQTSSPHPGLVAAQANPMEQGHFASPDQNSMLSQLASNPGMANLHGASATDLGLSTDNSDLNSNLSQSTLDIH

What was measured:
[1] = molecular target: ERα-36 (endogenous) (human (endogenous in MDA-MB-231, MCF-7, MCF-10A)) (UniProt P03372); test: co-IP; quiescent MDA-MB-231 cells with and without IL-6 for the indicated times; extracts precipitated with anti-ERα-36, blotted for STAT3, then pSTAT3 and acetyl-STAT3
[2] = molecular target: ERα-36 (endogenous) (human (endogenous in MDA-MB-231, MCF-7, MCF-10A)) (UniProt P03372); test: co-IP; quiescent MDA-MB-231 cells with and without IL-6 in the presence of TAM (10 μM) for 1 h; precipitated with anti-ERα-36, blotted with anti-p300
[3] = molecular target: ERα-36 (endogenous) (human (endogenous in MDA-MB-231, MCF-7, MCF-10A)) (UniProt P03372); test: co-IP; MDA-MB-231 cells transduced with Ad-dnERα-36 (control Ad-GFP), quiesced, treated with IL-6; precipitated with anti-ERα-36, blotted with anti-p300
[4] = molecular target: ERα-36 (endogenous) (human (endogenous in MDA-MB-231, MCF-7, MCF-10A)) (UniProt P03372); test: co-IP; quiescent MDA-MB-231 cells with and without IL-6 for the indicated times; extracts precipitated with anti-ERα-36 or anti-p300, blotted with anti-p300 and/or anti-ERα-36
[5] = molecular target: ERα-36 (endogenous) (human (endogenous in MDA-MB-231, MCF-7, MCF-10A)) (UniProt P03372); test: co-IP; MDA-MB-231, MCF-7 and MCF-10A cell lysates precipitated with an anti-ERα antibody and probed with an anti-STAT3 antibody
[6] = molecular target: Flag-tagged STAT3 (human) (UniProt P40763); test: co-IP; MDA-MB-231 cells cotransfected with Myc-ERα-36 and Flag-STAT3 (or deletion mutants); lysates 48 h after transfection; precipitated with Flag or Myc antibody, blotted with the other

binding [1]: binds
Substance: acetylated STAT3 (Lys-685), endogenous (from UniProt P40763 1-770)

binding [2]: no binding (condition: with TAM (10 μM)) | binding [4]: binds
Substance: p300 (endogenous) (from UniProt Q09472 1-2414)
binding [3]: no binding (condition: cells transduced with Ad-dnERα-36)

binding [5]: binds | binding [1]: binds
Substance: STAT3 (endogenous) (from UniProt P40763 1-770)

binding [6]: binds
Substance: Myc-tagged ERα-36 (from UniProt P03372-4 1-310)

binding [1]: binds
Substance: phosphorylated STAT3 (Tyr-705), endogenous (from UniProt P40763 1-770)
